Tested on: COX-2 expression in LPS-stimulated RAW264.7 cells
Test: COX-2 protein expression (immunoblot) in LPS-stimulated RAW264.7 cells
Assay type: cell-based
Conditions: 10, 50 and 100 µM, 2 h pre-treatment then LPS 500 ng/mL for 22 h, band intensity by Image J, duplicate
Method: Cells were washed thrice with cold DPBS, lysed using radioimmunoprecipitation assay buffer (RIPA buffer) supplemented with dithiothreitol (FUJIFILM Wako, Osaka, Japan) and complete™ Mini Protease Inhibitor Cocktail (Roche Diagnostics Corp., Indianapolis, Indiana, USA). Lysates were centrifuged at 13,000 rpm for 20 min at 4 °C, and the supernatant was collected. Total protein was quantified at a concentration of 1 μg/μL. SDS-PAGE was utilized to separate 10 μg of protein per well, and then transferred to a polyvinylidene fluoride (PVDF) membrane. The membrane was blocked with 5% skim milk overnight at 4 °C. Subsequently, the PVDF membrane was incubated at 4 °C for 2 h with primary antibodies against COX-2 and β-actin (Cell Signaling, Danvers, MA, USA), diluted in TBS-T containing 0.1% Tween-20. Following three 15 min washes with TBS-T, the membrane was incubated for 1 h at room temperature with secondary antibodies conjugated with horseradish peroxidase (HRP), specific to the primary antibodies. After another three TBS-T washes, protein detection was carried out using Super Signal® West Femto Substrate (Thermo Fisher, Waltham, MA, USA) and the Fusion Solo Chemiluminescent System (Vilber Lourmat, Eberhardzell, Germany).

Substance: Xinghamide A
- COX-2 protein expression: concentration-dependent reduction
